According to the supplement of paper PMC10126150:
Values marked as one replicate rest on one cluster of the flow cell; about a third of the high ones do not repeat.

Tested on: ATP
Experiment: switch fluorescence ratio, 500 uM ATP over buffer (Cy3 cluster intensity, sum of 5 cycles each) (fold (ratio)); higher = stronger signal-on switching upon ATP binding; sequences stand for … in TCGTCGGCAGCGTCAGATGTGTATAAGAGACAGTTTTTTTTTTTTTTTTTTTTTTTTT…TC
Details: aptamer strand: ATP DNA aptamer (quencher-CACCTGGGGGAGTATTGCGGAGGAAGG + anchor), 100 nM annealed; ATP concentration: 500 uM; one replicate
In short: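 After annealing to 100 nM quencher-labelled ATP aptamer, Cy3-labelled switching-strand clusters on a modified Illumina MiSeq flow-cell were imaged in selection buffer. A second image followed after 15 min with 500 uM ATP at 22 °C, and five such buffer/ATP cycles were done, each separated by NaOH stripping and re-annealing. The fluorescence ratio, averaged per switch-domain sequence, is summed target-cycle over summed buffer-cycle Cy3 intensity per cluster, with clusters outside 100-1000 RFU excluded.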
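Also: ATP exposure 15 min at 22 °C before imaging.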

Sequence	switch fluorescence ratio
CATGCGTCAA	3.75
AGTGGGCCGA	0.928
GCATTTTGAT	0.996
CCTTTGTGTT	1
TTTAGAGCTA	1.07
TAACAGGGCC	1.05
ACCTAGTCTA	1.02
CTGGCGTACT	1.01
AGGGCAAGTC	1.12
ATAGGTTCCT	1.01
ACCCCCGAGT	1.35
CAGTGGGCCT	0.98
ATGATCCGCT	1.17
ACTGATAATG	1.04
GAGCTAGCAG	1.01
TAGTGAGAAT	0.935
TGGTTGGCTG	1.01
TCGCTCAGGA	1.03
ATCTGTCTGT	1.03
TAGGGTGGTC	0.999
GCTTTTATGA	0.992
TAAAATAAGA	1.02
CCGGCGTAAC	5.72

Sequence	switch fluorescence ratio
TCGCTGGCGG	0.994
GCTAAAACTT	0.981
GCTCGCTTAA	1.18
TAATATCCGT	0.934
GCTAGACTGT	1.01
ACACATCGTT	1.01
AATTGTGGTC	0.987
GCCGCCCCTT	0.975
GTATAGTTAC	1.06
ACGGCGCAAT	2.31
TCGATAAGGG	0.988
GTTGTGGCTA	0.964
CGGGATCCCC	0.969
ATCCTTGGGA	0.96
TATTGTTGCA	0.974
GCGAAGGGAT	1.03
GCCGAGTGTT	0.98
TTTGAAGCC	1.05
TTTCCAAGA	1.36
TCGTGATCC	1.01
TTACGGTACG	1.03
ATTGTTCGCT	0.985
ACCGTTGGCA	0.963

Sequence	switch fluorescence ratio
AATGTGCCAG	1.01
TTATAGAATT	1.04
TAATTGGGG	0.984
AAATGTGGAT	1.02
AAGGCTCTTT	1.01
ATGTTAATTC	1
TGGAAAGGTG	1.01
ACATTGTGTC	1.03
AAGTCTAAGA	1
AGCTATGTGC	0.993
TGAGTTATA	1.04
CGTTAAATAG	1.08
GACTCCGCTT	2.01
CGTGGTTACC	0.997
TTTGTGCCA	0.987
GGGGCCACT	0.956
TGTTAAATTC	0.994
GTCATTGTGA	1.02
ATTCTTGCAC	1.03
AAGGTCCCAA	0.998
ACGGTTTTGA	1
CTGGGGTAAC	1.02
GCCGCTTAA	1.27

Sequence	switch fluorescence ratio
ATCAACCAGG	3.39
GTTCAGTGTC	1.09
CCATTGGGC	1.01
TTCGCTGGAG	1.01
CCAGGTGTAA	3.07
CGGTCCGTAT	0.952
GCACACCAAG	1.11
TTGCCGAGAA	1
GAAAACAATT	1.04
TGGTCATGGT	1.02
TAACCCTGTG	0.974
GGAGTGCATT	0.969
AAGTTTAAAG	0.977
CCCATTT	1.07
TACGTACTAT	1.47
AGCAACGGCT	1.04
GGCCGGACCA	1.09
GGTTTGTAAA	1.01
AGGGTGCGAG	0.965
ATCCTGACAT	1.01
ACAGTCTCGC	1.08
TCTGGCATTC	1.11
TTTTGCTTAG	1.01

Sequence	switch fluorescence ratio
AGCGACCGGC	1.01
GGGCGCTAAC	1.1
AGGGCGGGCC	0.989
ATTTATGAGT	1
ATTTCTGGCC	0.999
ACATGTGTCT	1
ACTATTGACT	1.06
TCGCAGCATG	1.64
ATAAGTACTA	1.26
TGAACCTCCT	1.47
GGCAACTAGT	1
GGGTTCGGAC	1.01
CCAGTGCTAT	1.24
GACTGCAGAG	0.969
CAATATTCGG	0.955
TGAGGTGACC	0.978
TTCCTAAGTT	1.02
CTACCCTTTT	1.01
AATGTCGGGG	0.932
ACGAGCAAGG	2.68
CAGTCAGTTT	0.978
GTCGAAGCGG	1
TCTCGTTAAC	1.06

Sequence	switch fluorescence ratio
TATATCTCAC	1.09
TCTGTCTGGG	1.03
AGGATGTGTG	0.988
ATATAAGATT	1.02
TGCCATTGGA	1.05
CCAGCTTCGA	1.06
CAGTGGAAAC	1.07
CTAATTAAGA	1.02
AAGATGTCAC	1.01
TAATGTAATC	0.978
GGCAATCATA	1.03
TGGTCAGCGC	0.99
GAAACCACCA	1.04
CGGTTAACT	1.06
CGAAGGAAAA	0.989
CGTTTAGTGA	1
GATTACCTTT	1.02
GAACTACGCG	1.19
GATATATCAA	0.998
AGTGATAGCG	0.982
AGGCCTAGC	0.978
GTTATGCCTG	1
AGGACAGTAA	1.05

Sequence	switch fluorescence ratio
ATACTCTACA	1.33
AGCTGGCCGC	1.03
TTCAACACTG	0.99
AAACAGATTA	0.992
CAAGTCACTT	1.08
CTTGCTAGC	0.995
CCCATTTGTG	1.14
TGCGTAAGTC	1.03
TATGGTGCAG	1.07
ACCGTATTGT	1.16
TTCGTTCTAT	0.997
ATGATATAGC	1.01
ATCCATCGAT	1.01
ATCAGTCCCT	1.01
GGCCGCGTGC	1.21
GGCTTTGTCG	0.94
CGCACCGTG	1.02
TTCGCCATCT	0.978
AGTGGAAAT	1.08
